# Results reported in paper PMC4336329 (PLoS ONE, 2015).
# In all, about 310,000 compounds went through this assay and about 14,000 (4.5%) showed an effect of 50% or more. The effect is printed as a negative number. Some of the results follow.
# Molecular target: human ether-à-go-go-related gene (hERG) potassium channel (human, UniProt Q12809)
# Assay: primary screen, population patch clamp on CHO cells stably expressing hERG
# 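Note: peak tail current of the secondary pulse compared with the same well before compound.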
# Sequence of human ether-à-go-go-related gene (hERG) potassium channel (Q12809 whole entry, looked up): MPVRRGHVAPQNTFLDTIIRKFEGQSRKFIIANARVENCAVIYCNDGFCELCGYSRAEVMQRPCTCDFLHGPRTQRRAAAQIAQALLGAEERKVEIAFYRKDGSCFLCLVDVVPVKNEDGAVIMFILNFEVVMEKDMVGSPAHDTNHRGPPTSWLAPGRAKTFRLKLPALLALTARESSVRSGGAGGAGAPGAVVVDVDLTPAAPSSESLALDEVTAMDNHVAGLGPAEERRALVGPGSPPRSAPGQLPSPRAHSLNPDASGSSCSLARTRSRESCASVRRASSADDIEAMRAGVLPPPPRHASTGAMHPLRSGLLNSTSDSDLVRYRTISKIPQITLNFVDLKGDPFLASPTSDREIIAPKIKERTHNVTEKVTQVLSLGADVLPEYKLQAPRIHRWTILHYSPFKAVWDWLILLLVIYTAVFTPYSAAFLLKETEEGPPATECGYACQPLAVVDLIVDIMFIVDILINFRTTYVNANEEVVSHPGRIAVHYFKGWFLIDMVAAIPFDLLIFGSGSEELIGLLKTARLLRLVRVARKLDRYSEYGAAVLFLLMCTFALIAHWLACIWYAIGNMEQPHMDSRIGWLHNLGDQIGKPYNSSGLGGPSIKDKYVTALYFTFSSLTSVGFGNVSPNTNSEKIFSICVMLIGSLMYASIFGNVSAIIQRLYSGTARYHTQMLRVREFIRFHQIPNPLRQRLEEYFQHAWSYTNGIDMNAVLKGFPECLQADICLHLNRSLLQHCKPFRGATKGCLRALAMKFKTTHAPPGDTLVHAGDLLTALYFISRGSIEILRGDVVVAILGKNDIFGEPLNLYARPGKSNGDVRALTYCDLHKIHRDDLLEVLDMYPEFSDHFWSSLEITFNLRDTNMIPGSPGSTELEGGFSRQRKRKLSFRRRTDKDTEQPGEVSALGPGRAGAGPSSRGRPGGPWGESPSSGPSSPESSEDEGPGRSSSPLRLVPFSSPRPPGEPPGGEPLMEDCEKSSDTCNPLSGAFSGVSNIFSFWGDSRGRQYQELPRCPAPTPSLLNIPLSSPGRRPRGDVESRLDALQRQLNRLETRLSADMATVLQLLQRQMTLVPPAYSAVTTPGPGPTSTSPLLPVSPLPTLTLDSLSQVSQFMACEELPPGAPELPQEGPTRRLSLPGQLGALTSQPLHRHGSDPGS
row,SMILES,"hERG current change (%, negative = inhibition) at 10uM"
1,O=C(O)c1ccc(C2Nc3ccccc3C(=O)N2Cc2ccccc2)cc1 (stereo not drawn),7.71%
2,CCC(Sc1ccc2nnc(-c3cccnc3)n2n1)C(=O)OC (stereo not drawn),-47%
3,CCOC(=O)c1c(C)[nH]c(C)c1C(=O)CSc1nnc(-c2ccncc2)n1C,4.24%
4,O=C(O)C1CC=CCC1C(=O)NCc1ccc2c(c1)OCO2 (stereo not drawn),-1.3%
5,Cc1nc(C)c(C(=O)N2CCCC(C(=O)c3ccc(Cl)cc3C)C2)s1 (stereo not drawn),-23%
6,COc1ccc(/C=N/n2cnnc2)cc1COc1ccccn1,-6.33%
7,CSc1ccc(CN2CCN(C(C)C)C(CCO)C2)cc1 (stereo not drawn),-24%
8,O=C(c1ccc(-c2ccc([N+](=O)[O-])cc2)o1)N1CCN(S(=O)(=O)c2cccs2)CC1,-27.3%
9,CCOc1ccc(NC(=S)NC(=O)c2c(Cl)cnn2CC)c([N+](=O)[O-])c1,19.8%
10,CC(C#N)(Cc1ccccc1)Nc1ccccc1 (stereo not drawn),17.6%
11,O=C(Nc1ccc2c(c1)OCCO2)c1ccc(NC(=O)C2CCCO2)cc1 (stereo not drawn),14.1%
12,CC(C)c1ccc(NC(=O)C2C3C=CC4(O3)C2C(=O)N(CCN2CCOCC2)C4C(=O)NC2CCCCC2)cc1 (stereo not drawn),15.3%
13,CC1CCN(CCCNC(=O)CCCNC(=O)Cn2cnc3sc4c(c3c2=O)CCCC4)CC1,12.3%
14,Cl.O=S(=O)(c1ccc2ccccc2c1)N(CC(O)CN1CCOCC1)c1ccccc1 (stereo not drawn),-47.9%
15,CN(C)CCC#CC(O)(c1ccccc1)c1ccccc1,-32.1%
16,C/C(=N\Nc1ccc([N+](=O)[O-])cc1)c1cc2ccccc2o1,1.78%
17,COc1cc(=O)[nH]c(SCC(=O)Nc2nc3c(s2)CCCC3)n1,1.57%
18,CCN(CC)CC(=O)Nc1c(Br)ccc2c1OCO2.Cl,10%
19,Cc1n[nH]c(=S)n1-c1ccccc1,17.2%

row,SMILES,"hERG current change (%, negative = inhibition) at 10uM"
1,COc1ccc(NC(=O)c2cc(C)nc3ccccc23)c(OC)c1,9.72%
2,CCOc1cc(CNc2ccc(O)cc2)cc(Br)c1OCc1ccccc1F,3.98%
3,CN1CCN(S(=O)(=O)c2cccc(C(=O)Nc3nccs3)c2)CC1,-1.22%
4,O=C(O)c1ccc(N=Nc2c(O)[nH]c3ccccc23)cc1,8.76%
5,CC(=O)Nc1ccc(S(=O)(=O)N2CCC(NC(=O)C(Cc3cccn3C)NC(C)=O)CC2)cc1 (stereo not drawn),1.63%
6,Cc1nc(C(=O)NNC(=O)Nc2ccc(Cl)cc2)cs1,-0.711%
7,COc1ccc(-c2csc(N(Cc3ccccc3)C(=O)COc3ccc(Cl)cc3)n2)cc1,4.31%
8,CC(=O)Nc1nonc1-c1nc2ccccc2n1CC1CC1,-6.11%
9,NC(=O)CC(NC(=O)c1ccccc1)c1ccc(N2CCC(Br)CC2)c([N+](=O)[O-])c1 (stereo not drawn),-5.94%
10,CC(=O)N1N=C2/C(=C/c3ccccc3)CCCC2C1c1ccccc1 (stereo not drawn),-10.5%
11,CCOC(=O)c1nc(C)nc(Sc2n[nH]c(-c3ccccc3)n2)c1C,-6.93%
12,CCOC(=O)c1sc(NC(=O)CSc2n[nH]c(C)n2)nc1C,14.5%
13,COc1ccc(-c2c(C)oc3c(CN4CCOCC4)c(O)ccc3c2=O)cc1,7.31%
14,COc1ccc(C2COC(=O)C2=N)c(NC(=O)c2ccc(Cl)cc2)c1 (stereo not drawn),-26.2%
15,CCOC(=O)N1CCN(C(=O)COc2ccc3oc4c(c3c2)CCCC4)CC1,-50.6%
16,CC1=C(C)CC2C(C1)C(=O)c1ccc(Br)cc1S2(=O)=O (stereo not drawn),-16%
17,OCCNc1nnc(-c2ccccc2)c(-c2ccccc2)n1,8.35%
18,CCCc1nnc(SCC(=O)N2CCCCC2C)n1CC (stereo not drawn),13.6%
19,COc1ccccc1C(=O)Nc1ccc2c3c(cccc13)CC2,-8.49%

row,SMILES,"hERG current change (%, negative = inhibition) at 10uM"
1,CS(=O)(=O)N(CC(=O)Nc1ccc(F)cc1F)C1CCCCC1,5.36%
2,COc1ccc(C2(CNC(C)=O)CCOCC2)cc1OC,22.4%
3,Cc1cccc(OCCn2c(=O)n(C)c3ccccc32)c1,-13.6%
4,COC(=O)Nc1cc(C)nc2ccccc12,5.13%
5,CCCn1c(C2CCCN2c2nc(-c3cccc(Br)c3)cs2)nc2ccccc21 (stereo not drawn),1.54%
6,Cc1cnc(NC(=O)CSc2nnc3ncccn23)s1,6.32%
7,CCCC1=[N+](CC(=O)c2ccccc2)CCn2cccc21.[Br-],10.7%
8,CCCCNC(=O)N1CCN(C(c2ccccc2)c2ccccc2)CC1,3.49%
9,COc1cc(/C=N/O)cc(Br)c1OCc1ccc(Cl)cc1,4.06%
10,N=c1c(S(=O)(=O)c2ccc(Br)cc2)cc2c(=O)n3ccccc3nc2n1Cc1ccccc1,27%
11,CSCc1ccc(C(=O)NC(C)c2ccc(-n3ccnc3)cc2)cc1 (stereo not drawn),-56%
12,CCOC(=O)Nc1ccc2c(c1)N(C(=O)CN(C)C)c1ccccc1CC2.Cl,-7.94%
13,CCN(CC)c1ccc(N=Cc2cc(Br)ccc2O)cc1,14.1%
14,CN1CCCC(OC(=O)c2cc(F)c(F)c(F)c2F)C1.Cl (stereo not drawn),10.5%
15,CCN(C(=O)CSc1nnc(COc2ccccc2F)n1N)C1CCS(=O)(=O)C1 (stereo not drawn),20.7%
16,CCOc1ccccc1NC(=O)C(OC(=O)c1ccccc1O)c1ccccc1 (stereo not drawn),12.5%
17,CCN(CCCNC(=O)COc1cc(=O)n(CC)c2ccccc12)Cc1ccccc1,-19.8%
18,CCc1ccc(-c2cc(C(=O)NN3CCOCC3)c3ccccc3n2)s1,-23.1%
19,COc1ccc(-c2nnn(CC(=O)N(Cc3ccccc3Cl)C(C(=O)NCC3CCCO3)c3ccco3)n2)cc1OC (stereo not drawn),20.8%
